# Source: publication PMC12350791
# For part of its entries the source gives two or more results. Only these are listed. There may be further records. Some entries list several cross-links; each record is another pair of residues.
# Key:
# Experiment in all cases: cross-linking mass spectrometry
# Conditions in all cases: DSBSO, in cells or nuclear extract, not told apart
# ACTR10 = ACTR10 (UniProt Q9NZ32)
# ATP5PO = ATP5PO (UniProt P48047)
# BCLAF1 = BCLAF1 (UniProt Q9NYF8)
# THRAP3 = THRAP3 (UniProt Q9Y2W1)
# BROX = BROX (UniProt Q5VW32)
# CCT2 = CCT2 (UniProt P78371)
# CCT4 = CCT4 (UniProt P50991)
# TCP1 = TCP1 (UniProt P17987)
# CHCHD3 = CHCHD3 (UniProt Q9NX63)
# CLTC = CLTC (UniProt Q00610)
# COPA = COPA (UniProt P53621)
# COX4I1 = COX4I1 (UniProt P13073)
# Sequence of UniProt P78371 (P78371 whole entry): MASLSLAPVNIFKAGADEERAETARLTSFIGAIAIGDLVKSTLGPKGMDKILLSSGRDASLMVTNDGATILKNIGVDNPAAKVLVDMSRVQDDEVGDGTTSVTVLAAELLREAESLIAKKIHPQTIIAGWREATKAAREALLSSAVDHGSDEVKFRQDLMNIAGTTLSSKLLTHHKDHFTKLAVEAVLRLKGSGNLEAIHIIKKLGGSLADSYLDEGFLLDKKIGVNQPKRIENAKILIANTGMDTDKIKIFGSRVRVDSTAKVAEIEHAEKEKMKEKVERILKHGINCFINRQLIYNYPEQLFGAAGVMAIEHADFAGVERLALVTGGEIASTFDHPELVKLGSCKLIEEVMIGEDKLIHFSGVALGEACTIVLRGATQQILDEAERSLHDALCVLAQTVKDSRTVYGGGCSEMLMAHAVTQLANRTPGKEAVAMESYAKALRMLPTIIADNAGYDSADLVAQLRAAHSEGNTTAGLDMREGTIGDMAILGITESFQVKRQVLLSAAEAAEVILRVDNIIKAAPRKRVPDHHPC
# Sequence of CCT5 (P48643 whole entry): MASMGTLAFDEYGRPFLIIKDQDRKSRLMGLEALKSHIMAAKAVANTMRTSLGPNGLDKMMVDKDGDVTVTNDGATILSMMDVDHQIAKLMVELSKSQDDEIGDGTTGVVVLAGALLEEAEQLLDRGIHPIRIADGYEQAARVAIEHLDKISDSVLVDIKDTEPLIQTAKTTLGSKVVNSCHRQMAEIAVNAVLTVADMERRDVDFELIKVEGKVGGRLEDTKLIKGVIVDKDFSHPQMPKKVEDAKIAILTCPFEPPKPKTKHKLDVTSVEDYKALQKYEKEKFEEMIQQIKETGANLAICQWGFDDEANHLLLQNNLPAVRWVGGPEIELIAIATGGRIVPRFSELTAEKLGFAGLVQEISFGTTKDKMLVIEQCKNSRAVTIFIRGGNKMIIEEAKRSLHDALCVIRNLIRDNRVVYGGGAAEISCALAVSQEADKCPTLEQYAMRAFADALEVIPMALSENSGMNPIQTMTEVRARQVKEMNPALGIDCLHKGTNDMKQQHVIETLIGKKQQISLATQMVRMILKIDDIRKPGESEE
# Sequence of CCT4 (P50991 whole entry): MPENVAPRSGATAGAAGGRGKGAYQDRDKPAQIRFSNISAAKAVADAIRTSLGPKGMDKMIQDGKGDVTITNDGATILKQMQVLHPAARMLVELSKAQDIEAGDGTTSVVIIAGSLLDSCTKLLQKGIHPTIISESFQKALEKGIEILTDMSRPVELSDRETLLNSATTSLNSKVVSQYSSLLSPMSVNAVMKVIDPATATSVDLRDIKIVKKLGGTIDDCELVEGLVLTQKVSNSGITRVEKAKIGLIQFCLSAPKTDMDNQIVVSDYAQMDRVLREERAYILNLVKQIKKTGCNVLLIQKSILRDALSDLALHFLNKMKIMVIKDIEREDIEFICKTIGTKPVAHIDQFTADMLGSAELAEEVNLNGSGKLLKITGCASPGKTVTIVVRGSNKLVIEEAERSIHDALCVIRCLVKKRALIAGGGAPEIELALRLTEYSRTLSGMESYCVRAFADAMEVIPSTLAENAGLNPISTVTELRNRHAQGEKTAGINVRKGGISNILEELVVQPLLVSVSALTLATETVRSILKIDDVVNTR
# Sequence of CCT4, P50991 (P50991 whole entry): as above
# Sequence of UniProt Q9NYF8 (Q9NYF8 whole entry): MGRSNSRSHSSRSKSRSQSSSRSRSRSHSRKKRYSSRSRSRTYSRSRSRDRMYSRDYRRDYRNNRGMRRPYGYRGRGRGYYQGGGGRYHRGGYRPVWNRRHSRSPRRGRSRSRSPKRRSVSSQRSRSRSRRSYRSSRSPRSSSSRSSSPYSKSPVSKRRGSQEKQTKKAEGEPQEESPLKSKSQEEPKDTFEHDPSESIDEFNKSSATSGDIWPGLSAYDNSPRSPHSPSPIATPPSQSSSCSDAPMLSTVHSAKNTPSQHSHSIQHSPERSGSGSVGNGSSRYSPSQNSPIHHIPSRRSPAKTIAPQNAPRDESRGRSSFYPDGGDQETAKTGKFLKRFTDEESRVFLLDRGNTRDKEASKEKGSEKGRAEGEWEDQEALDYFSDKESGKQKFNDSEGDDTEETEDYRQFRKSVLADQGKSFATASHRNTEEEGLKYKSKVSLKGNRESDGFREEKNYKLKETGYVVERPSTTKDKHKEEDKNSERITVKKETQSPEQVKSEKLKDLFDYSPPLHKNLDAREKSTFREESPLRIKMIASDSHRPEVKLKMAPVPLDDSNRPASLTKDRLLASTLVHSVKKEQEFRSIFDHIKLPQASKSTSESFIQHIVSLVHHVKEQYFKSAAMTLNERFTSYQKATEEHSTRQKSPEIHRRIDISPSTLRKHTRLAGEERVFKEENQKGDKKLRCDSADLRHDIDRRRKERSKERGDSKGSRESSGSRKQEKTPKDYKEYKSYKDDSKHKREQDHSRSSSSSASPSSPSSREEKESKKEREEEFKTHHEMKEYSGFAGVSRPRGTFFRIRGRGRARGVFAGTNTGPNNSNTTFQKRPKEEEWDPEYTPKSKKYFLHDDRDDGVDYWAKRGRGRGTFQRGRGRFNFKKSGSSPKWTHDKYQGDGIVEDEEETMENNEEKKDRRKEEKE
# Sequence of ERH (P84090 whole entry): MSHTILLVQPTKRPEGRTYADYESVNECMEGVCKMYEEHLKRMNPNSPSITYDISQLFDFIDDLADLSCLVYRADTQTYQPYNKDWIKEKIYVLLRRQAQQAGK
# Sequence of UniProt Q9Y2W1 (Q9Y2W1 whole entry): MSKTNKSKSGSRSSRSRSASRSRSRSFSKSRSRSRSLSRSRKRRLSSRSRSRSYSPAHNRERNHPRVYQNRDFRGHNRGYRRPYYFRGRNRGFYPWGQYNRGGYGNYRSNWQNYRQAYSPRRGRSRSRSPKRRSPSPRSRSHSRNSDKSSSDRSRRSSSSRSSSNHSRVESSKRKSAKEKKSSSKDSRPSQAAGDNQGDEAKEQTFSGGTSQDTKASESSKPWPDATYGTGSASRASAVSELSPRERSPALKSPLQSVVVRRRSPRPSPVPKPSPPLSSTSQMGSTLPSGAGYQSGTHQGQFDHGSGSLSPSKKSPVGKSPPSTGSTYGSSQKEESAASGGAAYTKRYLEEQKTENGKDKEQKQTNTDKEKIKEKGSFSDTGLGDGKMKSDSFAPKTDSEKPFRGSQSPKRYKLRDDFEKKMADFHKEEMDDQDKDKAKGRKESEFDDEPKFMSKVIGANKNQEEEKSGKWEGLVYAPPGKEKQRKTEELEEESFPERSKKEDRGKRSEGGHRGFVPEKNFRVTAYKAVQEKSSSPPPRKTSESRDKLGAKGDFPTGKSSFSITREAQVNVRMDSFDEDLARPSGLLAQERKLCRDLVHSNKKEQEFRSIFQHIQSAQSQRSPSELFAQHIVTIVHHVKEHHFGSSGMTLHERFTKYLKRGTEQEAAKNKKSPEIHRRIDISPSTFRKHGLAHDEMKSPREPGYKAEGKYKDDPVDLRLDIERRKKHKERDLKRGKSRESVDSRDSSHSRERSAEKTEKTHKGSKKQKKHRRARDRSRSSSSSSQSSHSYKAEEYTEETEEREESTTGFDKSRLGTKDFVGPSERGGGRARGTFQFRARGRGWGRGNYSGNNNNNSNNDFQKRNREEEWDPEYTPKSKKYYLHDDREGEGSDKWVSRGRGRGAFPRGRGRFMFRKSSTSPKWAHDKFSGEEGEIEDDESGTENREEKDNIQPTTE
# Sequence of PDCD5 (O14737 whole entry): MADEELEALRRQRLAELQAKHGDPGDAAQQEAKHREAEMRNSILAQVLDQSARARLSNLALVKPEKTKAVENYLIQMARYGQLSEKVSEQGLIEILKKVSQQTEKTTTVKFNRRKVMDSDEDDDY
# Sequence of TCP1 (P17987 whole entry): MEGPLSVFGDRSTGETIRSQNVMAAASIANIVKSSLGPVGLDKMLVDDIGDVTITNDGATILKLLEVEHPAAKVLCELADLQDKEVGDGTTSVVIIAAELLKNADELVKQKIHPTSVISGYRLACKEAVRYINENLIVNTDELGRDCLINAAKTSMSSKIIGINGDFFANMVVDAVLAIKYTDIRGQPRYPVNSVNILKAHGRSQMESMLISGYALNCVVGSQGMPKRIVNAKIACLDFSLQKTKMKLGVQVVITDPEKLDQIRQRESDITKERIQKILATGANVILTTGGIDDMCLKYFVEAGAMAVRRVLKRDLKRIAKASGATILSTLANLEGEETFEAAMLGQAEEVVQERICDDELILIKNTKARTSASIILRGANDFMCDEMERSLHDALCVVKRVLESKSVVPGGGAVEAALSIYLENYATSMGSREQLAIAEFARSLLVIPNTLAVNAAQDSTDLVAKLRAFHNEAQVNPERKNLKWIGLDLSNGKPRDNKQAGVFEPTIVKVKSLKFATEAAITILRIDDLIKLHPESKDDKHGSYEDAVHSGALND
# Sequence of UniProt P48047 (P48047 whole entry): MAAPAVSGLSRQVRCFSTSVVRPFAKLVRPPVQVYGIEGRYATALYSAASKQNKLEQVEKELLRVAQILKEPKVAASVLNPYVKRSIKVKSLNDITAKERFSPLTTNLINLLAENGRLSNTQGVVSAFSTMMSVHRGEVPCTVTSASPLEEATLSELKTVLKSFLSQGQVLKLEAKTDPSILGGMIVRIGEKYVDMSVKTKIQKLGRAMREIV
# Sequence of COX5B (P10606 whole entry): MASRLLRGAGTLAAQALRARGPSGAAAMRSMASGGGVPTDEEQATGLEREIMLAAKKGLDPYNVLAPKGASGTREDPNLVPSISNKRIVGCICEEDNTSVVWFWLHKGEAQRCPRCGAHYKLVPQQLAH
# Sequence of UniProt Q9NX63 (Q9NX63 whole entry): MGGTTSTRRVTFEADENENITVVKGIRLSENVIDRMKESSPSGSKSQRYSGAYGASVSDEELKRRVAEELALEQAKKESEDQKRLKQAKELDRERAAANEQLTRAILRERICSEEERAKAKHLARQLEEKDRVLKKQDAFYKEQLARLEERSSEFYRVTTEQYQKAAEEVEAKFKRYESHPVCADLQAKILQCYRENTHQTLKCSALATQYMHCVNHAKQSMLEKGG
# Sequence of TCP1, P17987 (P17987 whole entry): as the sequence (P17987 whole entry) above
substance,measurement,setting,value
"RPL14, P50914",cross-linked residues,ACTR10,K132 - K334 and K137 - K334
"ATP5PB, P24539",cross-linked residues,ATP5PO,K221 - K199 and K249 - K192
"ERH, P84090",cross-linked residues,BCLAF1,K12 - K593 and K90 - K637 and K90 - K676
same,cross-linked residues,THRAP3,K90 - K551 and K90 - K668 and K90 - K688 and K90 - K697
"TCEA1, P23193",cross-linked residues,BROX,K19 - K334 and K55 - K334
"CCT5, P48643",cross-linked residues,CCT2,K64 - K522 and K223 - K402 and K232 - K248 and K232 - K250 and K265 - K248 and K265 - K250 and K265 - K263 and K265 - K272 and K265 - K284 and K275 - K248 and K275 - K263 and K279 - K284 and K368 - K248 and K368 - K402 and K370 - K342 and K392 - K82
"CCT4, P50991",cross-linked residues,CCT2,K21 - K119 and K21 - K120 and K21 - K522 and K292 - K272
"TCP1, P17987",cross-linked residues,CCT4,K126 - K55 and K538 - K21 and K541 - K79
"PDCD5, O14737",cross-linked residues,CCT4,K63 - K395 and K110 - K395
same,cross-linked residues,TCP1,K63 - K541 and K98 - K538
"IMMT, Q16891",cross-linked residues,CHCHD3,K451 - K45 and K516 - K136
"CLTA, P09496",cross-linked residues,CLTC,K136 - K1441 and K242 - K1535
"COPB1, P53618",cross-linked residues,COPA,K712 - K631 and K949 - K631
"COX5B, P10606",cross-linked residues,COX4I1,K86 - K29 and K86 - K53
